This is one part of the list. Interaction screen of human proteins with wild-type SARS-CoV-2 proteins by split-DHFR complementation in yeast, 1 µg/mL methotrexate. Value = fitness of the pair (three or more lineages) minus that of the viral protein without a human partner, on a scale set by negative (0) and fused positive (1) controls, mean of up to three cultures; higher = more likely to interact. Active = false discovery rate below 0.05 (one-sided t-test) in at least one culture. Nearly all pairs are not hits, and differences among them are mostly noise (correlation between cultures about 0.3); most hits were seen in one culture only. Human sequences are the Swiss-Prot entries looked up by gene name; the clone may be another isoform. NSP2 values were corrected by the authors for a growth advantage. Listed are human proteins with a hit and a random twelfth of the others.
B1: PDPK1, O15530 (protein)
chain: MARTTSQLYDAVPIQSSVVLCSCPSPSMVRTQTESSTPPGIPGGSRQGPAMDGTAAEPRPGAGSLQHAQPPPQPRKKRPEDFKFGKILGEGSFSTVVLARELATSREYAIKILEKRHIIKENKVPYVTRERDVMSRLDHPFFVKLYFTFQDDEKLYFGLSYAKNGELLKYIRKIGSFDETCTRFYTAEIVSALEYLHGKGIIHRDLKPENILLNEDMHIQITDFGTAKVLSPESKQARANSFVGTAQYVSPELLTEKSACKSSDLWALGCIIYQLVAGLPPFRAGNEYLIFQKIIKLEYDFPEKFFPKARDLVEKLLVLDATKRLGCEEMEGYGPLKAHPFFESVTWENLHQQTPPKLTAYLPAMSEDDEDCYGNYDNLLSQFGCMQVSSSSSSHSLSASDTGLPQRSGSNIEQYIHDLDSNSFELDLQFSEDEKRLLLEKQAGGNPWHQFVENNLILKMGPVDKRKGLFARRRQLLLTEGPHLYYVDPVNKVLKGEIPWSQELRPEAKNFKTFFVHTPNRTYYLMDPSGNAHKWCRKIQEVWRQRYQSHPDAAVQ
B2: ACO1, P21399 (protein)
chain: MSNPFAHLAEPLDPVQPGKKFFNLNKLEDSRYGRLPFSIRVLLEAAIRNCDEFLVKKQDIENILHWNVTQHKNIEVPFKPARVILQDFTGVPAVVDFAAMRDAVKKLGGDPEKINPVCPADLVIDHSIQVDFNRRADSLQKNQDLEFERNRERFEFLKWGSQAFHNMRIIPPGSGIIHQVNLEYLARVVFDQDGYYYPDSLVGTDSHTTMIDGLGILGWGVGGIEAEAVMLGQPISMVLPQVIGYRLMGKPHPLVTSTDIVLTITKHLRQVGVVGKFVEFFGPGVAQLSIADRATIANMCPEYGATAAFFPVDEVSITYLVQTGRDEEKLKYIKKYLQAVGMFRDFNDPSQDPDFTQVVELDLKTVVPCCSGPKRPQDKVAVSDMKKDFESCLGAKQGFKGFQVAPEHHNDHKTFIYDNTEFTLAHGSVVIAAITSCTNTSNPSVMLGAGLLAKKAVDAGLNVMPYIKTSLSPGSGVVTYYLQESGVMPYLSQLGFDVVGYGCMTCIGNSGPLPEPVVEAITQGDLVAVGVLSGNRNFEGRVHPNTRANYLASPPLVIAYAIAGTIRIDFEKEPLGVNAKGQQVFLKDIWPTRDEIQAVERQYVIPGMFKEVYQKIETVNESWNALATPSDKLFFWNSKSTYIKSPPFFENLTLDLQPPKSIVDAYVLLNLGDSVTTDHISPAGNIARNSPAARYLTNRGLTPREFNSYGSRRGNDAVMARGTFANIRLLNRFLNKQAPQTIHLPSGEILDVFDAAERYQQAGLPLIVLAGKEYGAGSSRDWAAKGPFLLGIKAVLAESYERIHRSNLVGMGVIPLEYLPGENADALGLTGQERYTIIIPENLKPQMKVQVKLDTGKTFQAVMRFDTDVELTYFLNGGILNYMIRKMAK
B3: GCAT, O75600 (protein)
chain: MWPGNAWRAALFWVPRGRRAQSALAQLRGILEGELEGIRGAGTWKSERVITSRQGPHIRVDGVSGGILNFCANNYLGLSSHPEVIQAGLQALEEFGAGLSSVRFICGTQSIHKNLEAKIARFHQREDAILYPSCYDANAGLFEALLTPEDAVLSDELNHASIIDGIRLCKAHKYRYRHLDMADLEAKLQEAQKHRLRLVATDGAFSMDGDIAPLQEICCLASRYGALVFMDECHATGFLGPTGRGTDELLGVMDQVTIINSTLGKALGGASGGYTTGPGPLVSLLRQRARPYLFSNSLPPAVVGCASKALDLLMGSNTIVQSMAAKTQRFRSKMEAAGFTISGASHPICPVMLGDARLASRMADDMLKRGIFVIGFSYPVVPKGKARIRVQISAVHSEEDIDRCVEAFVEVGRLHGALP

molecular target: SARS-CoV-2 E; experiment: yeast fitness gain over the viral ORF with no human partner (scaled fitness); higher = more likely to interact
Procedure: (§1)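 Split mouse DHFR complementation in pooled diploid yeast: human ORFeome clones carry one fragment and viral ORFs the other; barcoded lineages compete in 1 µg/mL methotrexate and fitness is read by barcode sequencing in up to three cultures.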

Row | Binder | yeast fitness gain
1 | B1 | inactive: -0.00478
2 | B2 | inactive: 0.109
3 | B3 | inactive: 0.0495

molecular target: SARS-CoV-2 M; experiment: as above
Procedure: as §1

Row | Binder | yeast fitness gain
4 | B1 | inactive: -0.19
5 | B2 | inactive: 0.0221
6 | B3 | inactive: 0.0728

molecular target: SARS-CoV-2 N; experiment: as above
Procedure: as §1

Row | Binder | yeast fitness gain
7 | B1 | inactive: 0.00866

molecular target: SARS-CoV-2 NSP1; experiment: as above
Procedure: as §1

Row | Binder | yeast fitness gain
8 | B1 | inactive: -0.0212
9 | B2 | inactive: 0.0484

molecular target: SARS-CoV-2 NSP10; experiment: as above
Procedure: as §1

Row | Binder | yeast fitness gain
10 | B1 | inactive: 0.0695
11 | B2 | inactive: 0.0373
12 | B3 | inactive: 0.0104

molecular target: SARS-CoV-2 NSP12; experiment: as above
Procedure: as §1

Row | Binder | yeast fitness gain
13 | B1 | inactive: -0.0203
14 | B2 | inactive: 0.112
15 | B3 | inactive: 0.00557

molecular target: SARS-CoV-2 NSP13; experiment: as above
Procedure: as §1

Row | Binder | yeast fitness gain
16 | B1 | inactive: 0.0744
17 | B2 | inactive: -0.0759
18 | B3 | inactive: -0.0538

molecular target: SARS-CoV-2 NSP14; experiment: as above
Procedure: as §1

Row | Binder | yeast fitness gain
19 | B1 | inactive: -0.336
20 | B2 | inactive: -0.0565
21 | B3 | inactive: -0.106

molecular target: SARS-CoV-2 NSP15; experiment: as above
Procedure: as §1

Row | Binder | yeast fitness gain
22 | B1 | inactive: -0.00518
23 | B2 | inactive: 0.0908
24 | B3 | inactive: -0.0931

molecular target: SARS-CoV-2 NSP16; experiment: as above
Procedure: as §1

Row | Binder | yeast fitness gain
25 | B1 | inactive: -0.437
26 | B2 | inactive: 0.0712
27 | B3 | inactive: 0.00603

molecular target: SARS-CoV-2 NSP2; experiment: as above
Procedure: as §1

Row | Binder | yeast fitness gain
28 | B1 | inactive: -0.0872
29 | B2 | active: 0.34
30 | B3 | inactive: -0.115

molecular target: SARS-CoV-2 NSP4; experiment: as above
Procedure: as §1

Row | Binder | yeast fitness gain
31 | B1 | inactive: -0.127
32 | B2 | inactive: -0.205

molecular target: SARS-CoV-2 NSP5; experiment: as above
Procedure: as §1

Row | Binder | yeast fitness gain
33 | B1 | inactive: 0.0322
34 | B2 | inactive: 0.0508
35 | B3 | inactive: 0.0306

molecular target: SARS-CoV-2 NSP6; experiment: as above
Procedure: as §1

Row | Binder | yeast fitness gain
36 | B1 | inactive: 0.114
37 | B2 | inactive: -0.0751
38 | B3 | inactive: 0.043

molecular target: SARS-CoV-2 NSP7; experiment: as above
Procedure: as §1

Row | Binder | yeast fitness gain
39 | B1 | inactive: -0.0631
40 | B2 | inactive: -0.217
41 | B3 | inactive: 0.0449

molecular target: SARS-CoV-2 NSP8; experiment: as above
Procedure: as §1

Row | Binder | yeast fitness gain
42 | B1 | inactive: 0.00841
43 | B2 | inactive: -0.0817
44 | B3 | inactive: -0.07

molecular target: SARS-CoV-2 NSP9; experiment: as above
Procedure: as §1

Row | Binder | yeast fitness gain
45 | B1 | inactive: -0.0855
46 | B2 | inactive: 0.0963

molecular target: SARS-CoV-2 ORF10; experiment: as above
Procedure: as §1

Row | Binder | yeast fitness gain
47 | B1 | inactive: -0.0618
48 | B2 | inactive: 0.0296
49 | B3 | inactive: -0.0436

molecular target: SARS-CoV-2 ORF3A; experiment: as above
Procedure: as §1

Row | Binder | yeast fitness gain
50 | B1 | inactive: -0.135
51 | B2 | inactive: -0.0262

molecular target: SARS-CoV-2 ORF3B; experiment: as above
Procedure: as §1

Row | Binder | yeast fitness gain
52 | B1 | inactive: 0.0702
53 | B2 | inactive: 0.0393
54 | B3 | inactive: -0.00138

molecular target: SARS-CoV-2 ORF6; experiment: as above
Procedure: as §1

Row | Binder | yeast fitness gain
55 | B1 | inactive: -0.0255
56 | B2 | inactive: -0.00687
57 | B3 | inactive: -0.0881

molecular target: SARS-CoV-2 ORF7A; experiment: as above
Procedure: as §1

Row | Binder | yeast fitness gain
58 | B1 | inactive: 0.0182
59 | B2 | inactive: 0.0441
60 | B3 | inactive: -0.0324

molecular target: SARS-CoV-2 ORF7B; experiment: as above
Procedure: as §1

Row | Binder | yeast fitness gain
61 | B1 | inactive: -0.0475
62 | B2 | inactive: -0.0397
63 | B3 | inactive: 0.0294

molecular target: SARS-CoV-2 ORF8; experiment: as above
Procedure: as §1

Row | Binder | yeast fitness gain
64 | B1 | inactive: 0.0428
65 | B2 | inactive: 0.0376
66 | B3 | inactive: 0.0203

molecular target: SARS-CoV-2 ORF9B; experiment: as above
Procedure: as §1

Row | Binder | yeast fitness gain
67 | B1 | inactive: -0.0181
68 | B2 | inactive: 0.00316
69 | B3 | inactive: 0.0776

molecular target: SARS-CoV-2 ORF9Bwu (the 73-codon ORF); experiment: as above
Procedure: as §1

Row | Binder | yeast fitness gain
70 | B1 | inactive: -0.0405
71 | B2 | inactive: -0.108
72 | B3 | inactive: 0.0775

molecular target: SARS-CoV-2 S; experiment: as above
Procedure: as §1

Row | Binder | yeast fitness gain
73 | B1 | inactive: 0.0415
74 | B2 | inactive: 0.00593
75 | B3 | inactive: -0.0255

From the supplement of paper PMC11741623
